Consider one compound from US20240254096A1, “ULTRAVIOLET AND VISIBLE RADIATION ABSORBING COMPOUNDS” (ELKIMIA INC., priority 2021, published 2024).

Molecules are shown by their SMILES. Not every entry of the source has a single result; some have several. This is not the full list of results. An entry can have further records. The values listed for one entry read as repeated measurements on other runs, samples or individuals.

The nature of the data set: Thermal stability by Thermogravimetric Analysis (TGA). In kind it is physicochemical. The method, then: Briefly, the residual weight (%) of the compounds was measured at different temperatures, including 100° C. for water boiling, and other temperatures corresponding to extrusion processes, and the T onset (° C.) by intersection points of tangents was checked. The results are represented in Table 16 below, and in FIG. 6.

In the case of `C#Cc1ccc(NC2C=C(NCC(=O)OCC)CC(C)(C)C2)cc1` (stereo not shown) [Formula 76], the Td max is 260.9 °C and 253.3 °C [lines of one column].
